This is one part of the list.
Experiments:
HSkMC = human skeletal muscle cells; test: cytotoxicity call (relative viability < 0.9); conditions: 10 µM
S. aureus RN4220 = test: growth inhibition call (relative growth <= 0.2); conditions: 50 µM

Row | SMILES | cytotoxicity call (HSkMC) | growth inhibition call (S. aureus RN4220)
1 | Cc1noc(C)c1S(=O)(=O)Nc1ccc2c(c1)C(=O)N([C@@H](C)CO)C[C@@H](C)[C@H](CN(C)C(=O)Nc1ccccc1)OCCCC[C@@H](C)O2 | inactive | inactive
2 | C[C@@H]1[C@@H]([Si](C)(C)F)[C@H](CCO)O[C@@]12C(=O)N(Cc1cccc(N3C(=O)c4cccc5cccc3c45)c1)c1ccccc12 | inactive | inactive
3 | C[C@@H]1CCCCO[C@H](CN(C)Cc2ccc(C(=O)O)cc2)[C@@H](C)CN([C@@H](C)CO)C(=O)c2cc(NC(=O)Nc3cccc4ccccc34)ccc2O1 | inactive | inactive
4 | Cc1ccc(N2CCC[C@]3(CCNC3=O)C2)nn1 | inactive | inactive
5 | C[C@H]1CN([C@@H](C)CO)C(=O)CCCn2cc(nn2)CO[C@H]1CN(C)C(=O)Nc1ccccc1C(F)(F)F | inactive | inactive
6 | C[C@@H]1CN([C@H](C)CO)C(=O)Cc2cc(NC(=O)Cc3ccccc3)ccc2O[C@@H]1CN(C)Cc1ccc(C(F)(F)F)cc1 | inactive | inactive
7 | C[C@H]1CN([C@@H](C)CO)C(=O)c2cccc(NS(=O)(=O)c3ccc(F)cc3)c2O[C@H]1CN(C)Cc1ccc(-c2ccccc2)cc1 | inactive | inactive
8 | C[C@@H]1CCCCO[C@H](CN(C)CC2CCCCC2)[C@H](C)CN([C@H](C)CO)C(=O)c2cc(NC(=O)Cc3ccccc3)ccc2O1 | inactive | inactive
9 | COc1ccc(S(=O)(=O)N[C@H]2CC[C@@H](CCNC(=O)CN3CCOCC3)O[C@H]2CO)cc1 | inactive | inactive
10 | C[C@H](CO)N1C[C@H](C)[C@H](CN(C)C(=O)Nc2ccccc2)OCCCC[C@H](C)Oc2ccc(NC(=O)Nc3ccc(C(F)(F)F)cc3)cc2C1=O | inactive | inactive
